About 1,700 (3.3%) of roughly 52,000 compounds were called active. Cut-off read from the data, not from the text of the source: active = survival mostly below about 52% (no sharp cut-off); inactive = mostly above about 56%. Some of the results follow.

This assay concerns Wild type. The experiment in a line: S. aureus survival, RN4220 and DeltatarO strains – OD600, teichoic acid synthesis inhibitors, primary screen (AID 463173). The settings on record: S. aureus RN4220 wild type/DeltatarO growth, OD600, 18 h, stronger effect = lower value, screened at 18.75 µg/mL (by protocol).
Turning to `CCC1Oc2ccccc2N(CC(=O)NCc2ccc(C)cc2)C1=O` (centres undefined), the survival is inactive: 77%. In the case of `O=C(Cn1c(=O)n(-c2ccccc2)c(=O)c2c3c(sc21)CCCC3)Nc1ccc(F)cc1`, the survival was inactive: 88%. In the case of `COc1ccccc1N1CCN(C(=O)c2cc3c(=O)n(Cc4cccnc4)ccc3nc2C)CC1`, the survival was inactive: 81%.

In the case of `Cc1ccccc1OCC(=O)Nc1nnc(S(=O)(=O)N(C)c2ccccc2)s1`, the survival was inactive: 79%. As to `O=C(CC(=O)Nn1cnnc1)Nn1cnnc1`, the survival was inactive: 109%.

In the case of `COc1ccc(Br)cc1CNC(=O)c1cc2c(=O)n(C)c3ccccc3c2s1`, the survival is inactive: 84%. `Cc1cccc(CCNC(=O)c2nc(-c3ccc(Cl)cc3)n3c2CCCCC3)c1`: the survival was inactive: 72%. `CCN1CCN(c2ncc3c(n2)CCN(Cc2ccc(C)s2)C3)CC1`: the survival is inactive: 57%.

As for `CC(C)CC(=O)N(Cc1ccccc1)S(=O)(=O)c1ccc2c(c1)oc(=O)n2C`, the survival was inactive: 110%. The same measure for `CCOc1ccc(C(=O)OCc2cc(=O)n3nc(C(C)C)sc3n2)cc1`: inactive: 72%; for `CC(=O)c1ccc(NC(=O)COc2ccccc2-c2nc(C)no2)cc1`: inactive: 109%; for `CCn1c2c(c(=O)n3ncc(C(=O)Nc4ccc(F)c(Cl)c4)c13)CN(Cc1ccc(OC)cc1)CC2`: active: -1%.

Consider `CC(=O)c1cc(-c2ccccc2)n(CC(=O)Nc2ccc(C)cc2C)c1C`, for which the survival was inactive: 72%. The same measure for `Nc1nonc1-c1nc2ccccc2n1CC(=O)Nc1ccc(F)cc1`: inactive: 135%.

In the case of `CC(=O)Nc1cc(C(C)(C)C)nn1C`, the survival was inactive: 93%. On to `Cc1ccc(S(=O)(=O)c2cn(CC(=O)Nc3ccccc3)c3cc4c(cc3c2=O)OCO4)cc1`, for which the survival is inactive: 68%. Under `Cc1ccc(-c2nc(CS(=O)CC(=O)O)c(C)o2)cc1` (centres undefined) stands inactive: 77%.

`CCOc1ccccc1NC(=O)NC(CC)c1c(-n2cccc2)sc2c1CCN(C)C2` (centres undefined): the survival is inactive: 69%. Under `Cc1cccc(N2CCN(C(=O)c3ccc4c(c3)CCN4S(=O)(=O)c3ccccc3)CC2)c1C` stands inactive: 85%; under `CCc1ccc(Nc2nc3ccccc3c3nnc(C)n23)cc1`, inactive: 81%. The same measure for `CCc1ccccc1NC(=O)CSc1nccn1C`: inactive: 77%. The same measure for `CCc1ccc(S(=O)(=O)c2nnn3c2nc(NCCC(C)C)c2cc(Cl)ccc23)cc1`: inactive: 78%; for `CCOC(=O)c1cc(OC(=O)c2cc(Cl)ccc2OC)n(-c2ccccc2)n1`: inactive: 77%. With `O=C(COc1ccc(Cl)cc1Cl)Nc1ccc(C(=O)OC2CCCCC2)cc1`, the survival is inactive: 78%. The same measure for `Cn1nc(C(=O)Nc2cccc(C(F)(F)F)c2)c2c1-c1ccccc1S(=O)(=O)C2`: inactive: 91%. Regarding `CCCN(CCC)S(=O)(=O)c1ccc(C(=O)N2CCn3c4c(c5cc(C)ccc53)CCCC42)cc1` (centres undefined), the survival is inactive: 82%. On to `CC(=O)c1ccc(OC(=O)c2c(-c3ccccc3Cl)noc2C)cc1`, for which the survival was inactive: 56%. Take `COc1ccc2c(c1)c(CC(=O)Nc1cc(C)c(OC)c(C)c1)c(C)n2C(=O)c1ccc(Cl)cc1`: the survival was inactive: 87%.

On to `Cn1c(SCC(=O)Nc2ccccc2F)nc2c([nH]c3ccccc32)c1=O`, for which the survival is inactive: 111%.

On to `COc1ccccc1Nc1ncnc2c1nc1n2CCCCC1`, for which the survival is inactive: 133%. The same measure for `CCOc1ccc(NS(=O)(=O)c2ccc3[nH]cc(C(=O)NCCc4ccccc4)c(=O)c3c2)cc1`: inactive: 63%. The same measure for `Cc1occc1C(=O)Nc1ccc2ccccc2c1`: inactive: 141%. Under `Cn1c(=O)nc2n(-c3ccc(Br)cc3)c3cccc(Cl)c3cc-2c1=O` stands inactive: 84%; under `CC(C)(C)OC(=O)N1CCC(c2c(C(=O)NCc3ccccn3)cnn2-c2ccccc2Cl)CC1`, active: -6%. In the case of `Cc1ccc(C)c(N2CCN(S(=O)(=O)c3ccc(C4CCCCC4)cc3)CC2)c1`, the survival is inactive: 64%.

Turning to `CCCc1noc(-c2ccc(NCc3ccccc3OC)c([N+](=O)[O-])c2)n1`, the survival is inactive: 79%. Under `Cc1ccc(Nc2c(-c3cccc(Cl)c3)nc3cccc(C)n23)cc1` stands inactive: 22%; under `CCC(=O)N1c2ccccc2CC1C(=O)NCCN1CCN(c2ccccc2F)CC1` (centres undefined), inactive: 71%. Take `Cc1ccc(NC(=O)CSc2nc(=O)n(CCN3CCOCC3)c3c2CCC3)cc1Cl`: the survival is inactive: 66%. Under `CCOC(=O)C1=C(C)NC(=S)NC1c1ccc(OCC(=O)N2CCCCC2)c(OC)c1` (centres undefined) stands inactive: 120%; under `Cc1cc(-c2ccc(C)c(S(=O)(=O)NCCc3ccccc3)c2)on1`, inactive: 71%. For the molecule `COc1cccc(CNC(=O)C2CCN(c3ncnc4c3nc3n4CCCCC3)CC2)c1`, the survival was inactive: 117%. For `O=C(Nc1cc(-c2nc3ccccc3o2)ccc1Cl)c1cc([N+](=O)[O-])ccc1N1CCOCC1`, the survival is inactive: 61%. Turning to `CC(C)c1ccc(NC(=O)CSC2=Nc3ccccc3C3=NC(CC(=O)NCCc4ccccc4)C(=O)N23)cc1` (centres undefined), the survival was inactive: 71%.

`Cc1[nH]c2ccccc2c1SCCNC(=O)c1ccc(F)cc1`: the survival was inactive: 64%. Take `CCC(=O)Nc1cccc(-c2nc3ccccc3[nH]2)c1C`: the survival was inactive: 104%.

For the molecule `COc1ccc(Cl)cc1NC(=O)c1c(NCc2cccs2)sc2c1CCC(C)C2` (centres undefined), the survival is inactive: 74%.

On to `CCOc1ccccc1NC(=O)CSc1nc(-c2cccs2)cc(C(F)(F)F)n1`, for which the survival was inactive: 83%. As to `Cn1cc(-c2cc3n(n2)CCC(=O)N3CC(=O)NCc2ccccc2)c2ccccc21`, the survival was inactive: 73%. With `CCOC(=O)C1CCCN(C(=O)c2ccc(OCC)cc2)C1` (centres undefined), the survival was inactive: 117%. Under `COc1ccc(N(C(=O)c2cc(OC)c(OC)c(OC)c2)S(=O)(=O)c2ccc(C)cc2)cc1` stands inactive: 133%; under `Cc1ccccc1C(=O)Nc1ccc2nc(SCC(=O)N(C)c3ccccc3)sc2c1`, inactive: 75%; under `CN(C)C1(CNC(=O)COc2cccc(Cl)c2)CCCCC1`, inactive: 87%. As for `Cc1cccc(Cn2c(SCc3ccc(C(=O)NCc4cccs4)cc3)nc3ccncc32)c1`, the survival was inactive: 84%. Regarding `O=S(=O)(NCc1ccccc1Cl)c1cccc(S(=O)(=O)N2CCOCC2)c1`, the survival was inactive: 104%. Consider `CCC/C(O)=C1\C(=O)CC(C)(C)CC1=Nc1ccncc1`, for which the survival is inactive: 115%. For the molecule `Cc1cccc(C(=O)NCc2cn3cccc(C)c3n2)c1`, the survival is inactive: 109%. On to `CC(C)c1ccc(Cc2cnc(NC(=O)c3ccc4c(c3)CC(c3ccccc3)OC4=O)s2)cc1` (centres undefined), for which the survival was inactive: 88%.

Turning to `O=c1cc(N2CCN(c3ccc(F)cc3)CC2)[nH]c(=O)n1-c1cccc(Br)c1`, the survival was inactive: 45%.

For `Cc1ccc(C)c(NC(=O)C(NS(=O)(=O)c2ccc3c(c2)CCC(=O)N3)c2ccccc2)c1` (centres undefined), the survival is inactive: 128%.

Turning to `CC[C@H](C)NC(=O)CCCc1nnc2n(CCC(C)C)c(=O)c3sccc3n12`, the survival is inactive: 95%. Under `COc1ccccc1OC(C)C(=O)N1CCN(CCc2ccccn2)CC1` (centres undefined) stands inactive: 82%. Under `Cc1ccnc(NC(c2cc(C)ccc2O)c2ccc3cccnc3c2O)c1` (centres undefined) stands active: 3%.

Consider `COc1ccc(-c2cn3c(n2)sc2cc(C(=O)NC4CCCCC4)ccc23)cc1`, for which the survival is inactive: 88%. Turning to `Cc1ccc(CNC(=O)C2CCN(S(=O)(=O)c3c(C)noc3/C=C/c3ccccc3F)CC2)o1`, the survival is inactive: 73%. In the case of `COc1ccc(S(=O)(=O)N(C(=O)c2ccncc2)c2ccc3oc(C)c(C(C)=O)c3c2)cc1`, the survival is inactive: 133%. The same measure for `Cc1ccc(C(=O)c2cc(C)sc2NC(=O)CN2CCN(C(=O)c3ccco3)CC2)cc1`: inactive: 110%; for `Cc1ccc(-n2c(=O)c3cccnc3n2CC(=O)Nc2ccccc2C(F)(F)F)cc1C`: inactive: 71%. On to `COc1cccc(CNC(=O)C2CCCN(S(=O)(=O)c3cn(C)cn3)C2)c1` (centres undefined), for which the survival is inactive: 78%. Under `CCOC(=O)C1CCCN(C(=O)Cn2nc(C)n3c(cc4c(OC)cccc43)c2=O)C1` (centres undefined) stands inactive: 81%; under `CCC(C)n1c(=N)c(C(=O)NC2CCCCC2)cc2c(=O)n3cc(C)ccc3nc21` (centres undefined), inactive: 137%; under `COc1ccccc1N1CCN(Cc2cc(COC(C)C)c3cccnc3c2O)CC1`, inactive: 103%. Consider `O=c1c2ccccc2nc2sc(Nc3cccc(C(F)(F)F)c3)nn12`, for which the survival was inactive: 68%. The same measure for `CCN(CC)c1ccc(C2C(C(N)=O)=C(C)Nc3nc(SCc4ccccc4)nn32)cc1` (centres undefined): inactive: 84%; for `Cc1nc(N(CCO)C2CCCCC2)c2nnn(Cc3ccccc3)c2n1`: inactive: 123%. On to `COc1ccc(/C=C\c2onc(C)c2S(=O)(=O)N2CCC(C(=O)Nc3ccc(C)c(F)c3)CC2)cc1`, for which the survival is inactive: 93%. The same measure for `CCOC(=O)c1nnc2c(-c3ccc(F)cc3)c(C)nn2c1N`: inactive: 97%; for `CSc1cccc(NS(=O)(=O)c2ccc3[nH]cc(C(=O)N4CCCCCC4)c(=O)c3c2)c1`: inactive: 79%; for `Cc1cccc(Cc2c(C)nc3nc(SCC(=O)NC4CCCCC4)nn3c2C)c1`: inactive: 74%. Under `Fc1ccc(-c2noc3ncnc(NCc4cccc(Cl)c4)c23)cc1` stands inactive: 55%; under `COCCN1CN=C(NS(=O)(=O)c2ccc(C)cc2)NC1`, inactive: 71%; under `COc1ccc(-c2noc(CCC(=O)Nc3ccccc3Cl)n2)cc1OC`, inactive: 108%. The same measure for `COc1ccccc1CNC(=O)c1cnn(-c2ccc(F)cc2F)c1C1CCN(C(=O)OC(C)(C)C)CC1`: inactive: 71%; for `Cc1ccc(N2CC(NC(=O)Cc3ccc(F)cc3)CC2=O)cc1C` (centres undefined): inactive: 79%; for `O=C(Nc1ccc(N2CCN(C(=O)c3ccco3)CC2)cc1)c1ccccc1`: inactive: 121%.

As for `CCOc1cc(C2CC(=O)Nc3c2c(C)nn3-c2nc(C)cc(C)n2)ccc1O` (centres undefined), the survival was inactive: 83%.

Consider `COc1ccccc1N1CCN(C(=O)c2oc3ccccc3c2N)CC1`, for which the survival was inactive: 61%. Consider `Cc1ccc(-c2onc(C)c2C)cc1S(=O)(=O)NC1CCC(C)CC1` (centres undefined), for which the survival is inactive: 99%. The same measure for `COC(=O)c1cccnc1-n1c(=O)c2cccnc2n(CC(=O)Nc2cccc(C(F)(F)F)c2)c1=O`: inactive: 68%.

These data come from PubChem BioAssay AID463173 (ICCB-Longwood Screening Facility, Harvard Medical School, 2010).
